Test results from PubChem BioAssay AID588855 (National Center for Advancing Translational Sciences (NCATS), 2011).
The campaign covered roughly 410,000 compounds. About 5,000 (1.2%) were called active. The shares of active, inactive and inconclusive entries below differ from those in the screen. Calls come from the whole dose curve; as a rule, active = well fitted inhibition curve with a large enough effect; inconclusive = small, poorly fitted or top-dose-only effect; inactive = no such curve, though single readings can be large or run the other way. Where the call is inconclusive, the potency comes from a doubtful curve fit.
Potency is the fitted concentration of half-maximal effect; tags give direction and shape of the fitted curve.

Test: qHTS for Inhibitors of TGF-b; note: nearly all actives have a fitted effect of over 65% in size
Settings: HepG2 CAGA-GFP TGF-b/SMAD3 reporter, GFP fluorescence, 18 h, TGF-beta stimulated, 500 pg/mL final; series mostly up to 46.1 µM
Method in brief: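 Cell-based qHTS in HEPG2 carrying a CAGA-GFP Smad reporter; compounds added before 500 pg/mL final TGF-beta, 18 h incubation at 37 degrees C, GFP fluorescence quantified per cell by imaging cytometry.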
For `N=c1n(CC(=O)c2cccs2)c2ccccc2n1Cc1ccccc1`, the Potency was “inactive”.
For `CCN(CC)C(=S)SCC(=O)c1ccc(Br)cc1`, the Potency was “inactive”.
In the case of `CCOC(=O)c1c(NC(=O)CCCOc2ccc(Cl)cc2)sc2c1CCC2`, the Potency was “inactive”.
With `COc1ccc(OC)c(-c2noc(N3CCN(c4ccc(C(C)=O)cc4)CC3)n2)c1` the Potency was inconclusive: 7.94 µM [inhibitor, partial curve, poor fit].
In the case of `CC(=O)Nc1c(O)c2cccc3c2n(c1=O)CCC3`, the Potency was inconclusive: 6.31 µM [inhibitor, single point].
With `O=C(CN1C(=O)NC(Cc2ccccc2)C1=O)Nc1ccc(F)c(Cl)c1` (configuration not stated) the Potency was inconclusive: 35.5 µM [inhibitor, single point].
For `CC(C)c1ccc(NC2CCCN(C(=O)c3ccsc3)C2)cc1` (configuration not stated), the Potency was “inactive”.
In the case of `O=C(Nc1nccs1)c1cccc(N2C(=O)c3cccc4c([N+](=O)[O-])ccc(c34)C2=O)c1`, the Potency was “inactive”.
For `CCCN1CCC(=O)N([C@H](CSc2ccccc2)CC(C)C)CC1`, the Potency was inconclusive: 6.31 µM [inhibitor, single point].
For `CC1(C)CC2CC(C)(CN2/C=N/c2sc3c(c2C#N)CC(C)(C)NC3(C)C)C1` (configuration not stated), the Potency was inconclusive: 35.5 µM [inhibitor, single point].
For `COc1cc(CNCc2ccccc2Cl)ccc1OCC(=O)NC1CCCCC1`, the Potency was inconclusive: 35.5 µM [inhibitor, single point].
For `COc1ccc(-n2cc(C(=O)N(C)c3cc(C)ccc3OC)c3ccccc3c2=O)cc1`, the Potency was inconclusive: 0.501 µM [inhibitor, full curve].
In the case of `CN(C)c1ccc(N/C=C/C(=O)c2ccco2)cc1`, the Potency was “inactive”.
In the case of `Cc1nn(Cc2noc(C(=O)NCc3cccc(F)c3)n2)c(C)c1Br`, the Potency was “inactive”.
In the case of `Cc1ccc(N2C(=O)C(Cc3ccc(O)cc3)NC2=S)cc1C` (configuration not stated), the Potency was “inactive”.
For `Cc1ccc(NC2=C(NC(=O)c3ccccc3)C(=O)c3ccccc3C2=O)cc1Cl`, the Potency was active: 11.2 µM.
With `Brc1ccc(-c2noc(-c3ccccc3)n2)o1` the Potency was inconclusive: 22.4 µM [inhibitor, single point].
For `CC(=O)c1cccc2c(O)c(C3=Nc4ccccc4C3=O)[nH]c12`, the Potency was inconclusive: 35.5 µM [inhibitor, partial curve, poor fit].
For `COc1ccc(Oc2ccc(S(=O)(=O)N3CCCCC3)cc2S(=O)(=O)N2CCCCC2)cc1`, the Potency was inconclusive: 35.5 µM [inhibitor, single point].
With `COc1cc(C(=O)OCC(=O)Nc2cc(C)on2)ccc1OCc1ccccc1Cl` the Potency was “inactive”.
For `CC(=O)Nc1ccc(NS(=O)(=O)c2cc(Br)cc3c2N(C(=O)C2CC2)CC3)cc1`, the Potency was inconclusive: 35.5 µM [inhibitor, single point].
In the case of `Nc1ncnc2nn(C3OC(CO)C(O)C3O)nc12` (configuration not stated), the Potency was inconclusive: 35.5 µM [inhibitor, single point].
For `O=C(/C=C/c1ccc(Cl)cc1)Nc1nccs1`, the Potency was “inactive”.
For `C/C=C/c1ccc(OCCCCNCc2ccco2)c(OC)c1`, the Potency was “inactive”.
With `Cc1nc2ccccc2cc1OCc1ccc(F)cc1` the Potency was inconclusive: 0.1 µM [inhibitor, full curve, poor fit].
For `COc1ccc(Cl)cc1-n1c(=S)sc2c(=O)[nH]c(SCC(=O)NCCC(C)C)nc21`, the Potency was “inactive”.
With `c1ccc(-c2csc3ncnc(NCc4ccccn4)c23)cc1` the Potency was inconclusive: 11.2 µM [inhibitor, single point].
With `C[C@]12c3[nH]c4cc(-c5ccco5)ccc4c3CCN1C(=O)[C@@H](CC(=O)NCc1cccc(C(F)(F)F)c1)C[C@@H]2C(=O)N1CCCCC1` the Potency was active: 7.94 µM.
For `NNC(=O)c1cc2ccccc2[nH]1`, the Potency was “inactive”.
In the case of `Cc1cc2ccccc2n1CCNC(=O)c1ccc(F)cc1`, the Potency was inconclusive: 5.62 µM [inhibitor, full curve, poor fit].
In the case of `COc1ccc(Cl)cc1NC(=O)CSc1nc(-c2ccccc2)cc(=O)[nH]1`, the Potency was inconclusive: 35.5 µM [inhibitor, single point].
In the case of `CC1=C(c2ccc(C)cc2)S(=O)(=O)N(Cc2ccc(C(=O)Nc3ccccc3C)cc2)C1=O`, the Potency was “inactive”.
For `CCOc1ccccc1NS(=O)(=O)c1ccc2[nH]c(=O)ccc2c1`, the Potency was “inactive”.
For `C[n+]1c2n(c3ccccc31)N=C(c1ccc(-c3ccccc3)cc1)CS2`, the Potency was inconclusive: 2 µM [inhibitor, single point].
With `CCC(C)(C)n1nnnc1C(c1cc2ccc(C)cc2[nH]c1=O)N(Cc1cccnc1)Cc1ccco1` (configuration not stated) the Potency was inconclusive: 35.5 µM [inhibitor, single point].
For `C[C@H]1CN([C@@H](C)CO)S(=O)(=O)c2ccc(Br)cc2O[C@H]1CN(C)Cc1ccccc1F`, the Potency was active: 15.8 µM.
In the case of `CCOc1ccccc1NC(=O)n1ncc2cc(Cl)ccc21`, the Potency was “inactive”.
In the case of `Cc1ccc(NC(=O)/C(C#N)=C/c2cc(C)n(-c3ccc(Br)cc3)c2C)cc1C`, the Potency was inconclusive: 31.6 µM [inhibitor, single point].
With `CN(C)CCNC(=O)c1cccc(-c2cnc3c(NC=O)cc(-c4cccc(C(F)(F)F)c4)cn23)c1` the Potency was inconclusive: 35.5 µM [inhibitor, single point].
In the case of `Cc1cc(-c2nnc(SCC(=O)c3ccc(F)cc3)o2)no1`, the Potency was inconclusive: 5.62 µM [inhibitor, single point].
In the case of `COc1cc(/C=N/NC(=O)CC23CC4CC(CC(C4)C2)C3)cc(Br)c1OCC(=O)N(C)C`, the Potency was inconclusive: 6.31 µM [inhibitor, single point].
For `O=C(NC1CCCCC1)N1CCN(C2CCCCC2)CC1`, the Potency was “inactive”.
For `c1ccc(CCNc2ccc3c(c2)Cc2ccccc2-3)nc1`, the Potency was “inactive”.
With `Cc1ccc(C(C)C)c(OCc2nn(CC(=O)c3ccc(OC(F)F)cc3)c3[n+]2CCCCC3)c1` the Potency was inconclusive: 35.5 µM [inhibitor, single point].
With `O=C(CN1CCN(c2ccccn2)CC1)Nc1ccccc1Br` the Potency was inconclusive: 0.562 µM [inhibitor, partial curve, poor fit].
With `O=S1(=O)CCOC[C@H](c2ccccc2)N1Cc1ccc(Cl)cc1Cl` the Potency was inconclusive: 20 µM [inhibitor, single point].
For `COc1ccc(C2=NOC(C(=O)Nc3ccc(C)cc3)C2)cc1OC` (configuration not stated), the Potency was inconclusive: 35.5 µM [inhibitor, partial curve, poor fit].
For `CC1CC(C)CN(S(=O)(=O)c2ccc3c(c2)CCN3C(=O)CCC(=O)O)C1` (configuration not stated), the Potency was “inactive”.
With `COc1ccc(C(CCN2CCCC(C)C2)c2c(OC)cc(OC)c3c(C)cc(=O)oc23)cc1` (configuration not stated) the Potency was inconclusive: 7.08 µM [inhibitor, partial curve, poor fit].
In the case of `Cc1ccc(NC2=CC(=O)CC(c3ccccc3)C2)cc1` (configuration not stated), the Potency was “inactive”.
In the case of `Cc1nn(CC(=O)Nc2ccccn2)c(C)c1Br`, the Potency was “inactive”.
For `CSCC(=O)N1CCCC(CNC(=O)c2ccc(-c3ccccc3)cc2)C1` (configuration not stated), the Potency was inconclusive: 11.2 µM [inhibitor, partial curve, poor fit].
In the case of `O=C1/C(=C/c2ccc(F)cc2)SC(=S)N1CC(=O)N1CCCCC1c1cccnc1` (configuration not stated), the Potency was inconclusive: 3.55 µM [inhibitor, partial curve, poor fit].
In the case of `O=C(NCc1ccc2c(c1)OCO2)c1cccc(C(=O)NCc2ccc3c(c2)OCO3)c1`, the Potency was inconclusive: 7.08 µM [inhibitor, partial curve, poor fit].
For `Cc1sc2ncnc(N3CCC(C(=O)Nc4nc(-c5ccc(F)cc5)cs4)CC3)c2c1C`, the Potency was inconclusive: 0.1 µM [inhibitor, full curve, poor fit].
In the case of `Oc1ccccc1-c1n[nH]c(-c2ccccc2O)n1`, the Potency was active: 2.82 µM.
For `CCCC1=NN2C(=N)/C(=C\c3cc(C)n(Cc4ccccc4)c3C)C(=O)N=C2S1`, the Potency was inconclusive: 35.5 µM [inhibitor, single point].
With `COC(=O)c1scc(-c2ccc(C)cc2)c1S(=O)(=O)Nc1cc(Cl)c(OC)cc1OC` the Potency was inconclusive: 25.1 µM [inhibitor, single point].
For `CCCn1c(CCC(=O)Nc2cc(OC)cc(OC)c2)nc2cccnc21`, the Potency was “inactive”.
With `CCOC(=O)c1ccccc1NC(=O)c1cc(S(=O)(=O)N2CCOCC2)ccc1F` the Potency was “inactive”.
For `NNc1nnnc2c1sc1nc(N3CCOCC3)c3c(c12)CCCC3`, the Potency was “inactive”.
With `O=C(NCC1CCCO1)c1nn2c(c1Cl)NC(c1ccc(F)cc1)CC2C(F)(F)F` (configuration not stated) the Potency was “inactive”.
With `COc1ccc(OC)c2c1sc(=NC(=O)C1CCCCC1)n2C` the Potency was “inactive”.
In the case of `Cc1ccc(CNC(=O)C2CC3Cn4c(nc5cc(Cl)c(Cl)cc54)C3N2C)o1` (configuration not stated), the Potency was inconclusive: 0.631 µM [inhibitor, full curve, poor fit].
For `CCOC(=O)c1ccc(N2C(=O)c3[nH]nc(-c4ccc(C)cc4)c3C2c2cccs2)cc1` (configuration not stated), the Potency was inconclusive: 35.5 µM [inhibitor, partial curve, poor fit].
For `Cn1ccnc1SCc1nc2c(cnn2-c2ccccc2)c(=O)[nH]1`, the Potency was “inactive”.
For `O=C(c1ccc(F)cc1)n1ccc(-c2cnc(-c3ccccc3)s2)n1`, the Potency was inconclusive: 0.631 µM [inhibitor, partial curve, poor fit].
For `Cc1ccccc1-c1nnc(SCC(=O)Nc2cccnc2Cl)o1`, the Potency was “inactive”.
With `COc1ccc(C(=O)O)cc1S(=O)(=O)NCc1ccncc1` the Potency was “inactive”.
In the case of `Cc1ccc(NC(=O)CN(C)C(=O)C2CC(=O)N(Cc3ccccc3)C2)cc1` (configuration not stated), the Potency was “inactive”.
For `Cc1ccc(C)c(Cn2nnc3c(=O)[nH]c(C4CCCN(C(=O)c5cccs5)C4)nc32)c1` (configuration not stated), the Potency was “inactive”.
In the case of `CCC(CO)Oc1cc(NCc2ccc(C(F)(F)F)cc2)c2ncn(C(C)C)c2c1` (configuration not stated), the Potency was inconclusive: 35.5 µM [inhibitor, single point].
